Assay results published in article PMC6542180.
No constants are given. Whether binding was seen depends on the method and setting. For some assays here: In cells and extracts the contact can be indirect. Some binding calls cover weakened binding; strength is not graded here. For some assays here: Where a sequence is shown, tags or fusion partners need not be part of it.

The chains behind the UniProt entries cited, without tags or fusion partners. Where a name states a change or a piece, a line headed by the entry shows the natural chain unless it says otherwise.
UniProt P29350: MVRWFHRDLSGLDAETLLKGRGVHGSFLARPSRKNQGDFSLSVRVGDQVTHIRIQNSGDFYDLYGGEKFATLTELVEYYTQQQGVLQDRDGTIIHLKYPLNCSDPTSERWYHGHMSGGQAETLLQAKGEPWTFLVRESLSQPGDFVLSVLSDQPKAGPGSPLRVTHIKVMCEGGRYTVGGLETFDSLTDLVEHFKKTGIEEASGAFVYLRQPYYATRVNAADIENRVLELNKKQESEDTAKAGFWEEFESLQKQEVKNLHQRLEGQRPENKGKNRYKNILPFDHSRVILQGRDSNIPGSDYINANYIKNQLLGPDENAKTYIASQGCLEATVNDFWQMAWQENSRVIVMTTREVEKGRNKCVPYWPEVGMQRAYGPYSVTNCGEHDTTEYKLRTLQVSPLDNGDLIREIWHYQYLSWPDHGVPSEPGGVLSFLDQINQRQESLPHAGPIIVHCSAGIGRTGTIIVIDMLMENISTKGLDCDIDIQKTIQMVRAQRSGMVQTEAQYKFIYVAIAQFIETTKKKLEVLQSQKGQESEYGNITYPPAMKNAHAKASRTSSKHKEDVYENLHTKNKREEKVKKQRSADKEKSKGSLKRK
UniProt P29351: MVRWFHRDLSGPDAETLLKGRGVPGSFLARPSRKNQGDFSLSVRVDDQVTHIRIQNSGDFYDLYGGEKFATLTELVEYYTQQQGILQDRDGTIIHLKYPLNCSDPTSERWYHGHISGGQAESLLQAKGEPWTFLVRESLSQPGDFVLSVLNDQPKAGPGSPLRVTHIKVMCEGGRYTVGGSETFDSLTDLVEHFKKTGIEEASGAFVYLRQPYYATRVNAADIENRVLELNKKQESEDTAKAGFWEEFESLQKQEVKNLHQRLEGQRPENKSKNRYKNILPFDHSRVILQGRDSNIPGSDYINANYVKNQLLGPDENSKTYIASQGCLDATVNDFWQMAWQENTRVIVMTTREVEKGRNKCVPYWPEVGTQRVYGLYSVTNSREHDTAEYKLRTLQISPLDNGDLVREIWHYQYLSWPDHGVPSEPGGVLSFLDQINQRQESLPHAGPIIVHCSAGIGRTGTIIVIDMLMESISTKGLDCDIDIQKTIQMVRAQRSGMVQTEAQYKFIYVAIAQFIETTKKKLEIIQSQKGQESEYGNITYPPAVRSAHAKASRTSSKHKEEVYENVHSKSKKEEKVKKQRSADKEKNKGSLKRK

Columns and labels:
[1] = target: Flag-EDL933 Tir (wild-type) (enterohemorrhagic Escherichia coli (EHEC) strain EDL933) (UniProt Q7DB77); test: co-IP
[2] = target: Flag-EDL933 Tir residues 334–558 (enterohemorrhagic Escherichia coli (EHEC) strain EDL933) (UniProt Q7DB77); test: co-IP
[3] = target: Flag-EDL933 Tir residues 1–333 (enterohemorrhagic Escherichia coli (EHEC) strain EDL933) (UniProt Q7DB77); test: co-IP
[4] = target: T1, TAK1 of the in vitro GST pull-down assay (UniProt O43318); test: pull-down; in vitro GST pull-down of TAK1 with endogenous SHP-1 from mouse primary peritoneal macrophages; only the target purified
T1 sequence: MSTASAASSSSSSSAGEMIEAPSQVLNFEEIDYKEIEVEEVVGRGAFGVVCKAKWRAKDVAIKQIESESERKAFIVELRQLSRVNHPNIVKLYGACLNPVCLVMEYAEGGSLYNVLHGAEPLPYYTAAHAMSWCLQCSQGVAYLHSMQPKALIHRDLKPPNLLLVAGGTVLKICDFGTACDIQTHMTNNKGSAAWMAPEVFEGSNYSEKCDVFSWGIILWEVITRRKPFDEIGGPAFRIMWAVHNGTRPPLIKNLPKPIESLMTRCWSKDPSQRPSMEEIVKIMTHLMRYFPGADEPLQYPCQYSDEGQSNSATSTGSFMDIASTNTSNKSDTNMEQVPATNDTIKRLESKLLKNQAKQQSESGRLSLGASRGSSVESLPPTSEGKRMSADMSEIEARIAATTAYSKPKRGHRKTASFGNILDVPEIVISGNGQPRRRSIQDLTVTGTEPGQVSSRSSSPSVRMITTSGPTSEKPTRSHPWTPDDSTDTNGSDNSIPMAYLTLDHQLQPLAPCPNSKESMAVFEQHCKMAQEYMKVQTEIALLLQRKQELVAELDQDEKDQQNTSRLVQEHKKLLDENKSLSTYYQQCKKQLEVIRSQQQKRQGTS

[5] = target: HA-Tir delivered by EDL933(ΔTir + HA-Tir) (enterohemorrhagic Escherichia coli (EHEC) strain EDL933) (UniProt Q7DB77); test: co-IP
[6] = target: T1, TAK1 of the in vitro GST pull-down assay; test: pull-down; in vitro GST pull-down of TAK1 with endogenous SHP-1 from RAW264.7 cells; only the target purified
[7] = target: T1, TAK1 of the in vitro GST pull-down assay; test: pull-down; in vitro GST pull-down of TAK1 with purified recombinant His-SHP-1; both purified

Which binding [1] does the source give for “SHP-1 residues 1–242 (from UniProt P29350 1-242) (domain or fragment)” here?
The binding was “no binding”.

Which results are given for “HA-SHP-1 (from UniProt P29350 1-595) (enzyme)”?
binding [1]: binds; binding [2]: binds; binding [3]: no binding

Which binding [1] does the source give for “SHP-1 (C453S) (from UniProt P29350 1-595) (enzyme)” here?
The binding was “no binding”.

Which binding [1] does the source give for “SHP-1 residues 221–595 (from UniProt P29350 221-595) (domain or fragment)” here?
The binding was “binds”.

What does the source list for “endogenous SHP-1 (from UniProt P29351 1-595) (enzyme)”?
binding [4]: binds; binding [5]: binds; binding [6]: binds

Which binding [1] does the source give for “SHP-1 residues 107–595 (from UniProt P29350 107-595) (domain or fragment)” here?
The binding was “binds”.

For “His-SHP-1 (from UniProt P29350 1-595) (enzyme)”, which binding [7] is on record?
The binding was “binds”.
